Results on 167 variants are retold here after the RNAGym collection of RNA variant scans (doi:10.7554/elife.90254).

The source gives no read counts; variants with many changes may rest on few reads.

First the molecules themselves.
B1: LINE1-mini (parent)
chain: GGCAGAGCUCAACACAGCGUGGCAAAGUGGCUGUGGCUAGACUGCC

The variants in the data set derive from B1. The data set is described as follows: self-cleavage, relative activity (ratio to wild type); higher = more cleavage; in vitro, sequencing; the parent is a self-cleaving ribozyme.
Turning to C8U A16U G17A G40A C42U, the self-cleavage was 0.08.

For the variant C8U U9A A24U C37G, the self-cleavage is 0.02.

Turning to C8U A39C G44A, the self-cleavage came out at 0.12.

In the case of C8U C15U G22C U34G, the self-cleavage was 0.17.

Take C8G C13U G36U C45A: the self-cleavage came to 0.04.

As for C8U C10A A14U, the self-cleavage amounted to 0.01.

Take C8U C31A G35A: the self-cleavage was found to be 0.08.

As for C8U A16G C42G U43A, the self-cleavage is 0.04.

Regarding C8U C10G C13U C18A C31A A41U, the self-cleavage was determined as 0.03.

In the case of C8U C10U A16G C42G, the self-cleavage amounted to 0.03.

Consider C8U A11G C23A A26U U43C, for which the self-cleavage worked out at 0.02.

Consider U9A A11G C23G G30U, for which the self-cleavage was determined as 0.02.

For C8G C15U G19U, the self-cleavage was found to be 0.02.

For the variant C8G C37U A39G, the self-cleavage amounted to 0.

Take C8U C13G G21U G29C U38G C42A: the self-cleavage came out at 0.02.

For the variant C8G U32A G36C A39C, the self-cleavage is 0.06.

C8G C10A C42A: the self-cleavage worked out at 0.03.

On to C8G C18U U28A U32G, for which the self-cleavage worked out at 0.08.

Consider C8G G21A A41U, for which the self-cleavage stood at 0.09.

As for C8G U9G C13U A16G G19U G30U, the self-cleavage stood at 0.03.

For the variant C8U A14G C23U U34G G36U G40U C46G, the self-cleavage turned out to be 0.07.

Turning to C8G U20A U32G G35U C37G, the self-cleavage was found to be 0.04.

On to U9A A11C C23U, for which the self-cleavage was determined as 0.02.

For C8U C18G C31A C46U, the self-cleavage was determined as 0.02.

On to C8U G19U U34G, for which the self-cleavage was determined as 0.37.

Consider C8G C23A A25G U28C G29U C37U G40A, for which the self-cleavage was determined as 0.04.

As for C8U A14U A39G, the self-cleavage was 0.04.

Regarding U9A A12U C31U, the self-cleavage came out at 0.04.

With C8U A14G A25U G33A, the self-cleavage was found to be 0.3.

On to C8G G22U C31A, for which the self-cleavage worked out at 0.13.

C8U U9C C10A G17U A26C: the self-cleavage was 0.

In the case of C8U G17A A39C, the self-cleavage came out at 0.12.

For C8U C13A U38A G40U, the self-cleavage came to 0.18.

As to U9A A12C G27A C42G C46U, the self-cleavage was found to be 0.

In the case of C8U C13A G36U C45G, the self-cleavage amounted to 0.24.

Regarding C8G G22A A26G G27C G33A G40C, the self-cleavage turned out to be 0.03.

In the case of C8U G27C A39G, the self-cleavage was 0.05.

With C8U G27C A39U, the self-cleavage stood at 0.05.

As for C8U C10A A16C A25U, the self-cleavage worked out at 0.07.

On to C8G G40U C42U, for which the self-cleavage amounted to 0.1.

Regarding C8G C42A U43C, the self-cleavage turned out to be 0.37.

Consider U9A A12U G35U A41G U43C G44C, for which the self-cleavage came out at 0.

Turning to C8U G17U C23G C46A, the self-cleavage amounted to 0.14.

For the variant C8G C13G A25U A39U C46A, the self-cleavage came to 0.1.

As to C8U C13U C42U, the self-cleavage came out at 0.04.

As to C8U A26U U32C, the self-cleavage came out at 0.34.

Regarding C8G C13G A25C A26U G29A, the self-cleavage stood at 0.07.

In the case of C8U A24C A25U, the self-cleavage was 0.52.

Take C8U C15G G40A C46A: the self-cleavage is 0.67.

As to C8U G35U A39C U43G C46U, the self-cleavage is 0.05.

As for C8U A14C G21U G36A, the self-cleavage was 0.5.

With C8U C10A G22A G27A G30A C37A A41C C42A C45A, the self-cleavage was found to be 0.

On to C8U C18G C23U G35U, for which the self-cleavage is 0.08.

As for C8G G27U C45U, the self-cleavage was 0.06.

Consider C8U G19U G29C G36U C37G G40C, for which the self-cleavage amounted to 0.01.

As for U9A A11U A12U G19C G30A U34G, the self-cleavage was 0.02.

Take C8U C10U C18A G21U: the self-cleavage was determined as 0.09.

Take C8U A14G C18G A24G C31A: the self-cleavage stood at 0.07.

For the variant C8G C10G A11C C13A G17U U32C C46U, the self-cleavage was found to be 0.01.

Regarding C8G A26C U38C, the self-cleavage amounted to 0.01.

For the variant C8G C15A G17A C18U A26G G44U, the self-cleavage came to 0.01.

Take C8U G22U G27C G30C G33C: the self-cleavage was 0.

With C8U G19A G21C, the self-cleavage was found to be 0.01.

Regarding C8G A25U C42A, the self-cleavage was 0.03.

As to C8U U38C A41G, the self-cleavage was 0.

For the variant C8U A11U U34A G36U C42A, the self-cleavage was found to be 0.02.

Regarding C8U G17C U28A G36U, the self-cleavage came out at 0.11.

On to C8G A25U U38A C45G, for which the self-cleavage worked out at 0.

For C8G U20C U28C A39U, the self-cleavage was determined as 0.02.

C8G C15U G21U U28A A39U G40U: the self-cleavage came to 0.02.

C8U A12U U34A G35C G36U: the self-cleavage came out at 0.06.

As to U9A A12C C13U U20A A24C A26G U34G, the self-cleavage stood at 0.04.

As to C8G C10A U32G, the self-cleavage was determined as 0.04.

For the variant C8U A12G C45U, the self-cleavage worked out at 0.04.

Consider C8U C15A G30A G33C, for which the self-cleavage is 0.03.

C8G G21A A24C G44A C46U: the self-cleavage was 0.02.

For the variant C8G C31G U32C G40A, the self-cleavage turned out to be 0.03.

Regarding C8U C18U A26U G30A C37A, the self-cleavage was 0.22.

For C8G G17A A41U, the self-cleavage is 0.05.

In the case of C8U C15A U32C, the self-cleavage stood at 0.08.

With C8G G19C G36A, the self-cleavage turned out to be 0.07.

For the variant C8G U9A U20G U34A C45U, the self-cleavage is 0.4.

Take C8U G21A G29U C31U U32G G44U: the self-cleavage turned out to be 0.01.

For the variant C8U C13U G35A, the self-cleavage came to 0.15.

With C8G C13U G40A C46U, the self-cleavage is 0.1.

Regarding C8G G21U U32A G33U C46U, the self-cleavage stood at 0.05.

As for C8G U9G C15A G33C A41C C42A, the self-cleavage came out at 0.02.

As to C8U A12G G22C, the self-cleavage is 0.02.

As for C8U A12C G30U, the self-cleavage came to 0.02.

Take C8G G17A C37U: the self-cleavage worked out at 0.04.

On to C8G U32C G33A U34G, for which the self-cleavage worked out at 0.14.

Take C8U A14G C45A: the self-cleavage stood at 0.04.

On to C8U G19C G22C C46U, for which the self-cleavage turned out to be 0.04.

For the variant C8G U38G G40A, the self-cleavage amounted to 0.03.

Consider C8G C15U A16G G17U U20G G22A G44U, for which the self-cleavage turned out to be 0.03.

As for C8U G30A G44A, the self-cleavage came out at 0.17.

On to U9A A14G C46U, for which the self-cleavage was 0.27.

As to U9A A14G C31U C42U, the self-cleavage stood at 0.01.

On to C8G C15G A24C U34C A41G, for which the self-cleavage turned out to be 0.05.

C8G U9A G22U: the self-cleavage stood at 0.08.

Turning to C8G A25U G29U A39G C45U, the self-cleavage was 0.1.

As to C8U A14G G30A, the self-cleavage was 0.26.

On to C8U G17A C31A, for which the self-cleavage stood at 0.09.

For C8U G40U U43C, the self-cleavage worked out at 0.1.

For C8G U32G U43A, the self-cleavage worked out at 0.03.

C8U G22U G27A G36C G44C: the self-cleavage is 0.07.

With C8U A26U G33U, the self-cleavage was 0.51.

For the variant C8U A26C U34A A41U, the self-cleavage was determined as 0.14.

Take C8U G17U U34C A39U G40A: the self-cleavage worked out at 0.03.

As for C8G C13A U20C A26G, the self-cleavage is 0.04.

Turning to C8G C10U G44A, the self-cleavage is 0.03.

As for C8G U9G C18A C37A, the self-cleavage is 0.03.

On to U9A A11C G35A, for which the self-cleavage came out at 0.01.

In the case of C8G C37A C45A, the self-cleavage stood at 0.02.

For C8G G19U C31G, the self-cleavage was found to be 0.11.

Take C8G A26C G27C: the self-cleavage came out at 0.03.

With C8U G35C G36U, the self-cleavage is 0.05.

As for C8U G19C G27A G33U A41C, the self-cleavage is 0.03.

For the variant C8U C13A G40U, the self-cleavage is 0.23.

As to C8G C18A U28G G44U, the self-cleavage amounted to 0.01.

C8U A24G G44U: the self-cleavage worked out at 0.03.

As for C8U C18A U38C, the self-cleavage is 0.17.

In the case of C8U C23G U32C U38A C45U, the self-cleavage worked out at 0.02.

As to C8G U38C G40A, the self-cleavage was 0.06.

For C8U C10G G35C G40A, the self-cleavage amounted to 0.01.

For U9A A12G A24U, the self-cleavage stood at 0.03.

For C8G G19C C37G, the self-cleavage worked out at 0.04.

Turning to C8U U9G G33U, the self-cleavage is 0.04.

Regarding C8G C18A G27A G30A, the self-cleavage was determined as 0.2.

With C8G C10A G30U G44U, the self-cleavage was 0.01.

C8G U9C A39U: the self-cleavage came to 0.03.

Regarding C8U G17C A26C G40A, the self-cleavage was 0.2.

Take C8U C10U G29U: the self-cleavage was 0.05.

C8G C13U A14U A39G C45U: the self-cleavage was 0.24.

As to C8U A16U U20C A24U C31U, the self-cleavage came out at 0.05.

For C8U C23G G29U, the self-cleavage came out at 0.1.

Turning to C8U A24U C31U C46U, the self-cleavage was found to be 0.06.

In the case of C8G G21U C42G, the self-cleavage is 0.06.

In the case of C8G G19U G22U U28G A39U, the self-cleavage is 0.

As to C8U A11U U20C G36A, the self-cleavage stood at 0.

As for U9A A12U C46A, the self-cleavage was found to be 0.27.

Regarding C8U U9C C31U A39C, the self-cleavage was 0.03.

For the variant U9A A12C G44C, the self-cleavage came out at 0.01.

Take C8G G33U A41U: the self-cleavage was 0.02.

Consider C8U A16C U28C G36U C42U, for which the self-cleavage worked out at 0.12.

With C8G G21U G22C, the self-cleavage is 0.09.

Consider C8U C13A A14G A25C A26U U32C C42U U43G, for which the self-cleavage was determined as 0.02.

For the variant C8U C10A G27U, the self-cleavage amounted to 0.

Take C8U G21C G36A C37A: the self-cleavage was found to be 0.48.

As to C8U A11G A12U G19U, the self-cleavage stood at 0.02.

As for C8U C15U C37A C42A, the self-cleavage is 0.45.

C8U A11U A14C G22U: the self-cleavage stood at 0.01.

For C8U A12G G17U G33U U38A, the self-cleavage turned out to be 0.57.

On to C8U C13A A25G A39G, for which the self-cleavage is 0.1.

Take C8U U34G U43C: the self-cleavage came to 0.16.

C8G U32A G35A C46A: the self-cleavage was 0.

For C8G C10A A11G, the self-cleavage was found to be 0.01.

On to C8U A26G C45G, for which the self-cleavage amounted to 0.35.

Take C8G G36A G40A C45U: the self-cleavage amounted to 0.12.

As for C8G C13G C23A U32C, the self-cleavage was found to be 0.01.

In the case of C8G G36U C45U, the self-cleavage came to 0.07.

As to C8G C13G C31A U34A G36U, the self-cleavage was 0.08.

As to C8U G17U A24U, the self-cleavage stood at 0.2.

As for C8U U20C G33U, the self-cleavage turned out to be 0.08.

Turning to C8G U9A C46A, the self-cleavage was found to be 0.13.

Take C8U G21C C37G U38C G44U: the self-cleavage came to 0.01.

As for C8U C13G U20C G22A, the self-cleavage came to 0.28.
